Laboratory results published in PMC4336329 (PLoS ONE, 2015).
Out of some 310,000 compounds screened, about 14,000 (4.5%) showed an effect of 50% or more. Effects have a minus sign here. The list shows a part of the results.

biological target: human ether-à-go-go-related gene (hERG) potassium channel (human, UniProt Q12809); test: primary screen, population patch clamp on CHO cells stably expressing hERG
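Further: peak tail current of the secondary pulse compared with the same well before compound.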

Chain of human ether-à-go-go-related gene (hERG) potassium channel (Q12809 whole entry, looked up): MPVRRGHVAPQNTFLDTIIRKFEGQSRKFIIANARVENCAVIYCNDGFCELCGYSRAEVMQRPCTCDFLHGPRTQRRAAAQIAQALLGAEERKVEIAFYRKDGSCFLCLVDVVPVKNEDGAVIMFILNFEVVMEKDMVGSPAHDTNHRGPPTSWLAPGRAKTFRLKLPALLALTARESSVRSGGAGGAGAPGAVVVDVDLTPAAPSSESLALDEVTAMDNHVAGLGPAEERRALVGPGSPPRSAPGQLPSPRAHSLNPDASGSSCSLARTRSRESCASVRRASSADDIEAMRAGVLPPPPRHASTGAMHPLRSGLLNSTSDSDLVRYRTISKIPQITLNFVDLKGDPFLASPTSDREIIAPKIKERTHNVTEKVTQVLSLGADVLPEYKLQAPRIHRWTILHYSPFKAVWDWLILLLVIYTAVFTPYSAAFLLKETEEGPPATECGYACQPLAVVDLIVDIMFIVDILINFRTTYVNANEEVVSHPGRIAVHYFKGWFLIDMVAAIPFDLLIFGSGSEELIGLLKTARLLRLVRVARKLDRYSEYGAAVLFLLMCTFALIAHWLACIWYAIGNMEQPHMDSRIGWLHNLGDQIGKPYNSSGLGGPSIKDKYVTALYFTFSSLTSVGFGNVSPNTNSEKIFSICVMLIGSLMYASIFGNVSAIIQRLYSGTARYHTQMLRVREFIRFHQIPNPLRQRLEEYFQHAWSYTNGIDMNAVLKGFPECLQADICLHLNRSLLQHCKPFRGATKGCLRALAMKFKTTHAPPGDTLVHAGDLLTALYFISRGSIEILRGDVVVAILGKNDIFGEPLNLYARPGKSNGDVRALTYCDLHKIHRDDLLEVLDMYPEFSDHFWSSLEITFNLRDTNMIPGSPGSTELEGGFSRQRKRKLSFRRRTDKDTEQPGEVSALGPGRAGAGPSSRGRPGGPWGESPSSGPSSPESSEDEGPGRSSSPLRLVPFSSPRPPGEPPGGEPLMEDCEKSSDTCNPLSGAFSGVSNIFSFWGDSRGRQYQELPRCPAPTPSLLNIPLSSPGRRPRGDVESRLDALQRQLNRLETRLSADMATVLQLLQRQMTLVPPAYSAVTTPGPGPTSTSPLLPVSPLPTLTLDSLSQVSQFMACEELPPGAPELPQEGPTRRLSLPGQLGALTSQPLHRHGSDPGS

| Compound | hERG current change (%, negative = inhibition) at 10uM [%] |
| --- | --- |
| Cc1ccc(C(=O)NNC(=O)c2cc(C)nc3ccccc23)cc1 | -6.48 |
| CC(=O)C1=NOC2C(=O)N(c3ccccc3)C(=O)C12 (stereo not shown) | 13.2 |
| N#Cc1ccc(CSc2nnc(-c3cccnc3)o2)cc1 | -26.8 |
| O=C(Cc1cccs1)N1CCCC(c2nc3c(nnn3Cc3ccccc3Cl)c(=O)[nH]2)C1 (stereo not shown) | -29.6 |
| COc1ccc(NC(=O)CSc2nc(C3CC3)nc3ccccc23)c(OC)c1 | 4.94 |
| Cc1ccc2sc(N3CCN(CCNC(=O)c4ccco4)CC3)nc2c1C.Cl | -58.2 |
| COc1ccc(C(C)(C)C)cc1NC(=O)COC(=O)c1ncc(Cl)c(Cl)c1Cl | 10.2 |
| COc1cc(NC(=O)CN2C(=O)NC(C)(CCC(C)C)C2=O)cc(OC)c1 (stereo not shown) | -0.743 |
| CCCCCCn1c(O)c(/C=C2\C=NN=C2c2ccccc2)sc1=S | 2.67 |
| C(/C=C/c1ccccn1)=C\c1ccccc1 | -5 |
| Cc1ccc(-c2nc3ccc(Cl)cc3n2OC(C)C(=O)O)cc1 (stereo not shown) | 12.1 |
| O=C(CNC(=O)C1(c2ccccc2)CC1)Nc1ccc(F)c(F)c1 | 11.3 |
| CC1CCN(C(=O)CSc2nnc(-c3ccncc3)n2C)CC1 | 6.41 |
| O=[N+]([O-])c1ccc(Oc2ccc(/C=N/O)cc2)nc1 | 0.3 |
| CCOc1ccc(NC(=O)COC(=O)c2ccc3c(c2)C(=O)N(CCc2ccccc2)C3=O)cc1 | 9.69 |
| CN1C(=O)CC(N2CCN(CCN=CC3=C(O)CC(C)(C)CC3=O)CC2)C1=O (stereo not shown) | 13.1 |
| COc1ccc(C(=O)Nc2ccccc2C(=O)NC(Cc2ccc(O)cc2)C(=O)NNC(=O)c2ccccc2)cc1 (stereo not shown) | 9.95 |
| C#CCN(C)CCCOc1ccc(Cl)cc1Cl.Cl | -21 |
| CCC(=NC1CC1)c1c(O)n(-c2ccc(OC)cc2)c(=O)[nH]c1=O | 18.6 |
| O=C(NCc1ccc(F)cc1)C(=O)NCC1CCCN1S(=O)(=O)c1ccccc1 (stereo not shown) | -38.2 |
| CC(C)C(=O)N(Cc1ccc(F)cc1)Cc1nc2ccccc2c(=O)[nH]1 | -30.4 |
| COc1ccc2c(c1)c(=O)c(C(=O)O)c(-c1ccc3c(c1)OCO3)n2C | -27.4 |

| Compound | hERG current change (%, negative = inhibition) at 10uM [%] |
| --- | --- |
| Br.CCCCC(CCC(=O)O)(C(=O)OCC)c1csc(Nc2ccc(OCC)cc2)n1 (stereo not shown) | 6.54 |
| CCOc1ccc(CCNC(=O)COC(=O)c2c(OC)cccc2OC)cc1OCC | -8.62 |
| CC(=O)c1ccc(NC(=S)NCc2cccnc2)cc1 | -1.93 |
| CN(C)C(=O)c1cn(-c2ccc(Cl)cc2)c(=O)c2ccccc12 | -10.9 |
| O=C(Nc1ccc(F)cc1F)c1csc(-c2cccs2)n1 | 27.4 |
| O=C(CSc1nnnn1-c1cccnc1)Nc1ccc(OCc2ccccc2)cc1 | -7.38 |
| Cc1cccc(C)c1-n1c(SCC(=O)NCc2ccco2)nc2ccccc2c1=O | -28.7 |
| COc1ccc(C2C(C(C)=O)=C(C)Nc3ncnn32)cc1 (stereo not shown) | 18.4 |
| Cc1cc(C)cc(Oc2nc(C(F)(F)F)nc3ccccc23)c1 | 17.6 |
| CCOc1ccc(CC(=O)N2CCN(c3ccc(N4CCOCC4)nn3)CC2)cc1OCC | 8.69 |
| Cc1cc(NC(=O)C2=C(O)c3ccccc3S(=O)(=O)N2C)no1 | 6.5 |
| COc1ccc(/C=N/OC/C(O)=C(\C#N)c2nc3ccccc3[nH]2)cc1 | -15.4 |
| COc1ccccc1C1C2=C(CCCC2=O)N(CC(=O)O)C2=C1C(=O)CCC2 | 15.9 |
| CCOC(=O)c1c(C)oc2ccc(NS(=O)(=O)c3cccs3)cc12 | 6.47 |
| Cc1cc2c(ncn2Cc2ccccc2)c(N)c1C | 5.6 |
| CC(=O)n1c(Cl)c(NC(=O)CCl)c2ccccc21 | -8.24 |
| O=C(O)c1cc(=O)c2ccccc2[nH]1 | 8.86 |
| COc1ccc(N2C(=O)CCC(C(=O)Nc3ccccn3)C2c2ccc(OC)c(OC)c2)cc1 (stereo not shown) | 8.15 |
| COC(=O)C1=C(c2ccc(F)cc2OCc2ccccc2)C[C@@H]2CC[C@H]1N2C(=O)N1CCC(C)CC1 | -3.4 |
| CN1CCN(c2ccc(S(=O)(=O)N3CCOCC3)cc2NC(=O)Cc2ccccc2F)CC1 | -26.4 |
| CCNC(=O)COC(=O)Cc1ccc(Cl)cc1Cl | 10.6 |
| COc1ccccc1OCCSc1nnc(C)n1-c1ccccc1 | -10.5 |

| Compound | hERG current change (%, negative = inhibition) at 10uM [%] |
| --- | --- |
| Cc1cc(NC(=O)CSc2nc3ccccc3s2)no1 | 13.2 |
| COc1ccc(NC(=S)N2CCN(Cc3cccc(F)c3)CC2)c(OC)c1 | -6.36 |
| COc1ccccc1CC(=O)NC1CC1 | 13.6 |
| CC1=C(C(=O)OCc2ccccc2)C(c2cccnc2)n2ncnc2N1 (stereo not shown) | 9 |
| CCCCSc1nnc(-c2ccc(NC(C)=O)cc2)n1C | 0.665 |
| COc1cc(CNCCc2ccc3c(c2)OCO3)cc(OC)c1OC.O=C(O)C(=O)O | -14.2 |
| C=C1CCN([C@@H](CC(C)C)C(=O)NN2CCOCC2)S(=O)(=O)c2ccccc21 | 9.45 |
| COc1ccc(Cl)cc1NC(=O)CSc1nnc(C2CC2)n1C | -2.44 |
| CN(C)CCn1c2c(c(SCC(=O)Nc3ccc4c(c3)OCCO4)nc1=O)CCCC2 | -14.8 |
| COc1ccc(-n2ccnc2SCC(=O)Nc2cc(C)on2)cc1 | 6.74 |
| CCc1ccc(N2CC(C(=O)OCc3csc(CC(=O)Nc4ccccc4C)n3)CC2=O)cc1 (stereo not shown) | 10.6 |
| CC(=O)c1cccc(OCC(O)CNCCc2ccc(Cl)cc2)c1 (stereo not shown) | -49 |
| COc1ccc(/C=C2\SC(=S)N(CC(=O)NC3CCS(=O)(=O)C3)C2=O)cc1 (stereo not shown) | 11.9 |
| CCn1c(C(=O)NCc2ccccn2)cc2sccc21 | 0.0676 |
| COc1ccc(CNC(=O)CCC(=O)n2ncc3cc(C)ccc32)cc1 | -1.26 |
| CCOC(=O)CC1C(=O)NCCN1S(=O)(=O)c1ccc(C)cc1 (stereo not shown) | 14.2 |
| O=C(CSCc1ccccc1)Nc1ccc2c(c1)C(=O)NC2=O | 0.0605 |
| Cc1ccc(C(=O)Nc2ccc(N3CCOCC3)cc2)cc1 | 7.36 |
| COc1ccc(CNC(=O)C2CC(=O)N(c3ccc(OCC(=O)N4C(C)CCCC4C)cc3)C2)cc1 (stereo not shown) | -29.4 |
| C/C(CC(=O)NCC(C)C)=N\NC(=O)COc1cc(C)c(Br)cc1Br | -31.6 |
| CCOc1ccc(-c2cc(C)n3nc(C(N)=O)cc3n2)cc1 | -11.1 |
| CCOC(=O)C1=C(c2ccccc2)OC(N)=C(C#N)C1c1ccc(Cl)s1 (stereo not shown) | 3.47 |

| Compound | hERG current change (%, negative = inhibition) at 10uM [%] |
| --- | --- |
| COc1ccccc1Oc1ccc(NC(=O)c2ccccc2)cc1 | -23.1 |
| Cc1cc([N+](=O)[O-])nn1CCCC(=O)N1CCN(c2ccccc2)CC1 | -21.4 |
| Cc1cc(C)nc(Sc2nc(C)nc3c2oc2ccccc23)n1 | -1.57 |
| CCOC(=O)Cc1nnc(NC(=O)c2ccccc2OC)s1 | -4.76 |
| COCCOC(=O)c1c(C)oc2ccc(OCc3ccccc3)cc12 | -5.55 |
| O=C(COC(=O)c1ccccc1SCC(=O)N1CCCC1)NC1CCCCC1 | -5.12 |
| Cc1ccc(CS(=O)Cc2ccc(C(=O)NC3CCCCC3)o2)cc1 (stereo not shown) | 2.31 |
| O=C(COC(=O)[C@@H]1CC(O)CN1S(=O)(=O)c1ccc([N+](=O)[O-])cc1)NC12CC3CC(CC(C3)C1)C2 (stereo partly shown) | -35.2 |
| CC(C)CC(NC(=O)c1ccccc1)C(=O)OCC(=O)Nc1ccc(Br)cn1 (stereo not shown) | -1.01 |
| CCOc1ccccc1CNc1nc2nc3c(c(=O)n2[nH]1)CCC3 | 19.6 |
| CCOC(=O)c1ccc(NC(=O)c2nc[nH]c2C(=O)NC2CCN(C(=O)OC(C)(C)C)CC2)cc1 | 4.44 |
| CCOc1cc2[nH]c(=S)n(CCC(=O)NCc3ccco3)c(=O)c2cc1OCC | 23.6 |
| COc1ccc(-c2ccc(CCC(=O)O)o2)cc1 | -0.707 |
| CCCCc1nnc(NC(=O)c2cccc(S(=O)(=O)N3CCN(C)CC3)c2)s1 | 14.7 |
| O=C(CCSc1ccccc1)Nc1ccccc1Br | -13.2 |
| CC(C)(C)N1CC23CCC(C[C@@H]2C1=O)O3 (stereo partly shown) | 7.02 |
| COC(=O)C1=NN[C@H](C(=O)OC(C)(C)C)[C@H]1c1ccccc1 | -6.12 |
| OCC[C@@H]1C[C@H](O)[C@@H](O)[C@@]2(OCCCc3ccccc32)O1 | 15 |
| CC1(C)CC(N2CCCC2)=CC(=[N+]2CCCCC2)C1.[I-] | 3.58 |
| O=C(Nc1nnc(SCC(=O)N2CCCC2)s1)C1CC(=O)N(c2ccc(F)cc2)C1 (stereo not shown) | 24 |
| C=CCC(NC(C)c1ccccc1)c1ccco1 (stereo not shown) | -6.84 |
| CCOCCCNC(=S)N1C2CCC1CC(NC(=O)NC13CC4CC(CC(C4)C1)C3)C2 (stereo not shown) | -8.16 |
